Each structure is given as a SMILES string. Read-outs that look alike come from different tables or passages of the source.

The subject of one test is NCI-H322M. The class given is cell-based, human. The note with it: 10^Δ2-x, relative to compound 2.
The next test concerns MALME-3M. The class given is cell-based, human. The note with it: 10^Δ2-x, relative to compound 2.

Take `CO[C@@H]([C@@H]1Cc2cc3cc(O[C@H]4C[C@@H](O[C@H]5C[C@@H](O)[C@H](O)[C@@H](C)O5)[C@H](O)[C@@H](C)O4)c(C)c(O)c3c(O)c2C(=O)[C@H]1O[C@H]1C[C@@H](O[C@H]2C[C@@H](O[C@H]3C[C@H](O)[C@H](O)[C@@H](C)O3)[C@H](O)[C@@H](C)O2)[C@H](O)[C@@H](C)O1)[C@@H](O)C(C)=O` [Compound 9, demycarosyl-3D-β-D-digitoxosyl-mithramycin SK]: the activity improvement factor in the test with NCI-H322M ([…]) turned out to be 2.43; with MALME-3M, 1.23.

Take `CO[C@H](C(=O)C(C)=O)[C@@H]1Cc2cc3cc(O[C@H]4C[C@@H](O[C@H]5C[C@@H](O)[C@H](O)[C@@H](C)O5)[C@H](O)[C@@H](C)O4)c(C)c(O)c3c(O)c2C(=O)[C@H]1O[C@H]1C[C@@H](O[C@H]2C[C@@H](O[C@H]3C[C@H](O)[C@H](O)[C@@H](C)O3)[C@H](O)[C@@H](C)O2)[C@H](O)[C@@H](C)O1` [Compound 11, demycarosyl-3D-β-D-digitoxosyl-mithramycin SDK]: the activity improvement factor in the test with NCI-H322M (NCI-H322M) is 3.63; in the test with MALME-3M, 0.69.
